The other results are listed elsewhere or left out.
Columns and labels:
HSkMC = human skeletal muscle cells; experiment: cytotoxicity call (relative viability < 0.9); conditions: 10 µM
HepG2 = experiment: cytotoxicity call (relative viability < 0.9); conditions: 10 µM
S. aureus RN4220 = experiment: growth inhibition call (relative growth <= 0.2); conditions: 50 µM

| Compound | cytotoxicity call (HSkMC) | cytotoxicity call (HepG2) | growth inhibition call (S. aureus RN4220) |
| --- | --- | --- | --- |
| C[C@H](CO)N1C[C@H](C)[C@H](CN(C)C(=O)Nc2cccc3ccccc23)OCCCC[C@H](C)Oc2ccc(NC(=O)Nc3ccc(C(F)(F)F)cc3)cc2C1=O | inactive | inactive | inactive |
| O=C(C[C@H]1CC[C@H]2[C@@H](COC[C@@H](O)CN2CC2CCOCC2)O1)N1CCOCC1 | inactive | inactive | inactive |
| C[C@@H]1CCCCO[C@@H](CN(C)S(=O)(=O)c2cn(C)cn2)[C@H](C)CN([C@@H](C)CO)C(=O)c2cc(NS(=O)(=O)c3ccccc3)ccc2O1 | inactive | inactive | inactive |
| Cc1ccc(S(=O)(=O)Nc2cccc3c2O[C@H](CN(C)Cc2ccc(C(F)(F)F)cc2)[C@H](C)CN([C@H](C)CO)C3=O)cc1 | inactive | inactive | inactive |
| COC1C(O)C(O)C(O)C(O)C1O (configuration not stated) | inactive | inactive | inactive |
| O=C(O)C[C@@H]1C=C[C@@H](NC(=O)c2ccncc2)[C@H](CO)O1 | inactive | inactive | inactive |
| CN(C)CCCNC(=O)C[C@H]1CC[C@H]2[C@H](COc3ccc(NS(C)(=O)=O)cc3C(=O)N2C)O1 | inactive | inactive | inactive |
| C[C@@H]1CN([C@H](C)CO)S(=O)(=O)c2ccc(Br)cc2O[C@@H]1CN(C)Cc1ccc(-c2ccccc2)cc1 | inactive | inactive | inactive |
| C[C@@H](O)C#Cc1ccc2c(c1)O[C@H](CN(C)C(=O)c1ccccc1)[C@@H](C)CN([C@@H](C)CO)S2(=O)=O | inactive | inactive | inactive |
| Cc1noc(C)c1S(=O)(=O)N(C)C[C@H]1Oc2ccc(NC(=O)NC3CCCCC3)cc2CC(=O)N([C@@H](C)CO)C[C@@H]1C | inactive | inactive | inactive |
| COc1cc(O)ccc1C(C)=O | inactive | inactive | inactive |
| C[C@@H]1CN([C@H](C)CO)C(=O)Cc2cc(NC(=O)Cn3cnnn3)ccc2O[C@@H]1CN(C)Cc1ccc(C(F)(F)F)cc1 | inactive | inactive | inactive |
| C[C@H]1CN([C@@H](C)CO)C(=O)c2cc(NC(=O)C3CC3)ccc2O[C@H]1CN(C)S(=O)(=O)c1cn(C)cn1 | inactive | inactive | inactive |
| C[C@H](CO)N1C[C@H](C)[C@@H](CN(C)S(=O)(=O)c2cn(C)cn2)Oc2ccc(NS(=O)(=O)c3ccc(F)cc3)cc2CC1=O | inactive | inactive | inactive |
| Cc1noc(C)c1NC(=O)Nc1ccc2c(c1)C(=O)N([C@@H](C)CO)C[C@@H](C)[C@H](CN(C)S(=O)(=O)c1cccs1)OCCCC[C@H](C)O2 | inactive | inactive | inactive |
| Cc1noc(C)c1S(=O)(=O)N(C)C[C@H]1Oc2ccc(NC(=O)CCN3CCOCC3)cc2C(=O)N([C@@H](C)CO)C[C@H]1C | inactive | inactive | inactive |
| C[C@H](CO)N1C[C@H](C)[C@H](CN(C)Cc2ccccc2)Oc2c(NC(=O)C3CCOCC3)cccc2C1=O | inactive | inactive | inactive |
| C[C@@H]1CN([C@@H](C)CO)C(=O)c2cc(NC(=O)c3ccncc3)ccc2O[C@@H]1CN(C)S(=O)(=O)c1cn(C)cn1 | inactive | inactive | inactive |
| NC[C@H]1CCCN(C(=O)Nc2ccc(Oc3ccccc3)cc2)C1 | inactive | inactive | inactive |
| C[C@@H]1CN([C@H](C)CO)C(=O)c2cc(Br)cnc2O[C@H]1CN(C)Cc1ccc2c(c1)OCO2 | inactive | inactive | inactive |
| C[C@@H]1CN([C@H](C)CO)C(=O)c2c(c3ccccc3n2C)-c2ccccc2CO[C@H]1CN(C)Cc1cccc(F)c1 | inactive | inactive | inactive |
| Cc1noc(C)c1NC(=O)N(C)C[C@H]1Oc2c(NC(=O)Nc3ccc(C(F)(F)F)cc3)cccc2C(=O)N([C@H](C)CO)C[C@H]1C | inactive | inactive | inactive |
| C[C@H](CO)N1C[C@H](C)[C@H](CN(C)C(=O)Nc2ccc(C(F)(F)F)cc2)Oc2ccc(NC(=O)Cc3ccccc3)cc2C1=O | inactive | active | inactive |
| COc1cccc(S(=O)(=O)N(C)C[C@@H]2Oc3cc(C#CCN(C)C)ccc3S(=O)(=O)N([C@H](C)CO)C[C@H]2C)c1 | inactive | inactive | inactive |
| CO[C@@H]1CN(C)C(=O)c2cc(NC(=O)Nc3cccc(Cl)c3)ccc2OC[C@@H](C)N(C(=O)Nc2c(C)noc2C)C[C@H]1C | inactive | inactive | inactive |
| C[C@@H]1CN([C@@H](C)CO)C(=O)c2c(c3ccccc3n2C)-c2ccccc2CO[C@H]1CN(C)Cc1ccccc1C(F)(F)F | active | inactive | inactive |
| C[C@H](CO)N1C[C@H](C)[C@H](CN(C)C(=O)NC2CCCCC2)Oc2ccc(NC(=O)Nc3cccc4ccccc34)cc2C1=O | inactive | inactive | inactive |

| Compound | cytotoxicity call (HSkMC) | cytotoxicity call (HepG2) | growth inhibition call (S. aureus RN4220) |
| --- | --- | --- | --- |
| O=C(C[C@H]1C=C[C@@H](NC(=O)c2cccnc2)[C@H](CO)O1)NCCN1CCCCC1 | inactive | inactive | inactive |
| COc1ccc(S(=O)(=O)Nc2ccc3c(c2)C(=O)N([C@H](C)CO)C[C@H](C)[C@@H](CN(C)C(=O)Nc2cccc4ccccc24)O3)cc1 | inactive | inactive | inactive |
| C[C@H](CO)N1C[C@H](C)[C@H](CN(C)S(=O)(=O)c2cn(C)cn2)OCCCC[C@H](C)Oc2ccc(NC(=O)Nc3ccc(C(F)(F)F)cc3)cc2C1=O | inactive | inactive | inactive |
| COc1ccc(CN(C)C[C@H]2Oc3ccc(NC(=O)Nc4cccc5ccccc45)cc3C(=O)N([C@H](C)CO)C[C@@H]2C)cc1 | inactive | inactive | inactive |
| C[C@@H]1CN([C@@H](C)CO)C(=O)c2cccc(NS(=O)(=O)c3cccs3)c2O[C@@H]1CN(C)C(=O)Nc1cccc2ccccc12 | inactive | inactive | inactive |
| O=C(Cc1ccncc1)NCC[C@@H]1CC[C@@H](NC(=O)C2CCOCC2)[C@@H](CO)O1 | inactive | inactive | inactive |
| COc1ccccc1C#Cc1ccc2c(c1)O[C@H](CN(C)Cc1cncnc1)[C@H](C)CN([C@H](C)CO)S2(=O)=O | inactive | inactive | inactive |
| C[C@H](CO)N1C[C@H](C)[C@@H](CN(C)Cc2ccc3c(c2)OCO3)Oc2ccc(NC(=O)Cn3cnnn3)cc2C1=O | inactive | inactive | inactive |
| N#Cc1ccc[nH]c1=O | inactive | inactive | inactive |
| NCC[C@@H]1CC[C@@H](NC(=O)c2ccccc2F)[C@@H](CO)O1 | inactive | inactive | inactive |
| C=CCOC(=O)[C@@H]1[C@H]2C(=O)O[C@H](c3ccccc3)[C@H](c3ccccc3)N2[C@H](c2ccc(OCCOC(=O)[C@@H]3C[C@@H]4C(=O)N[C@@H](CCCCN(C)C)C(=O)N4[C@@H]3c3ccc(O)cc3)cc2)[C@@]12C(=O)Nc1ccc(I)cc12 | inactive | inactive | inactive |
| Cc1cc(C(=O)Nc2cccc3c2O[C@@H](CN(C)C(=O)NC2CCCCC2)[C@H](C)CN([C@@H](C)CO)C3=O)n(C)n1 | inactive | inactive | inactive |
| O=C(Cc1ccc(-c2ccccc2)cc1)Nc1c(C(=O)Nc2ccc3c(c2)OCCO3)oc2ccccc12 | inactive | inactive | inactive |
| O=C(C[C@@H]1C[C@H]2c3cc(NC(=O)Cc4ccncc4)ccc3O[C@H]2[C@@H](CO)O1)NCc1cccc(F)c1 | inactive | inactive | inactive |
| CC(C)NC(=O)N(C)C[C@H]1Oc2ccc(NS(=O)(=O)c3cccs3)cc2C(=O)N([C@@H](C)CO)C[C@H]1C | inactive | inactive | inactive |
| C[C@@H]1CCCCO[C@@H](CN(C)S(C)(=O)=O)[C@@H](C)CN([C@H](C)CO)C(=O)c2cc(NC(=O)Nc3cccc4ccccc34)ccc2O1 | inactive | inactive | inactive |
| CC(C)CC#Cc1ccc2c(c1)O[C@@H](CN(C)C(=O)NC1CCCC1)[C@H](C)CN([C@H](C)CO)S2(=O)=O | inactive | inactive | inactive |
| CCc1ccc(/C=C2\SC(=O)N(CCCCCCNC(=O)c3ccccc3Nc3ccc([N+](=O)[O-])c4nonc34)C2=O)cc1 | active | active | inactive |
| CCCCc1oc2ccccc2c1C(=O)c1cc(I)c(OCCN(CC)CC)c(I)c1 | active | active | inactive |
| C=C1C[C@]23CC[C@@H]4[C@@](C)(CCC[C@@]4(C)C(=O)O)[C@H]2CC[C@H]1C3 | inactive | active | active |
| Cc1ccc(-c2ccc3c(c2)O[C@@H](CN(C)Cc2cncnc2)[C@@H](C)CN([C@H](C)CO)S3(=O)=O)cc1 | inactive | inactive | inactive |
| C[C@@H]1CN([C@H](C)CO)C(=O)c2cccc(NC(=O)c3cnccn3)c2O[C@H]1CN(C)C(=O)Nc1ccc2c(c1)OCO2 | inactive | inactive | inactive |
| C[C@@H]1CN([C@H](C)CO)C(=O)CCCn2nncc2CO[C@@H]1CN(C)C(=O)Nc1ccc2c(c1)OCO2 | inactive | inactive | inactive |
| Cc1cc(C(=O)Nc2cccc3c2O[C@@H](CN(C)C(=O)Nc2ccc4c(c2)OCO4)[C@@H](C)CN([C@@H](C)CO)C3=O)n(C)n1 | inactive | active | inactive |
| Cc1noc(C)c1NC(=O)Nc1cccc2c1O[C@H](CN(C)S(=O)(=O)c1ccccc1)[C@@H](C)CN([C@H](C)CO)C2=O | inactive | inactive | inactive |
| CC(C)CC#Cc1ccc2c(c1)O[C@@H](CN(C)Cc1cncnc1)[C@H](C)CN([C@@H](C)CO)S2(=O)=O | inactive | inactive | inactive |
| O=C(Nc1cc(C(=O)Nc2ccc(S(=O)(=O)O)c(S(=O)(=O)O)c2)cc(C(=O)Nc2ccc(S(=O)(=O)O)c(S(=O)(=O)O)c2)c1)Nc1cc(C(=O)Nc2ccc(S(=O)(=O)O)c(S(=O)(=O)O)c2)cc(C(=O)Nc2ccc(S(=O)(=O)O)c(S(=O)(=O)O)c2)c1 | inactive | inactive | inactive |

Source: the antibiotic and cytotoxicity screens of Wong et al. (2023)
